In PubChem BioAssay AID1768 (National Center for Advancing Translational Sciences (NCATS), 2009):
Out of some 270,000 compounds screened, about 620 (0.23%) were called active. Inconclusive results, whose numbers are uncertain, are shown with a selection of clear calls. Calls come from the whole dose curve; as a rule, active = well fitted inhibition curve with a large enough effect in the polarisation, with a control signal flat (not every such curve was filed as active); inconclusive = small, poorly fitted or top-dose-only effect, or effect the other way, or a change in a side signal; inactive = no such curve, though single readings can be large or run the other way; the % refers to the polarisation. Potencies beside an inconclusive call are fits to weak or partial responses and may not hold up. “Side channel” marks fits to a control or component signal instead of the main read-out.

What follows are compounds tested against Menin (Homo sapiens) (UniProt O00255) (assay: qHTS Assay for Inhibitors Targeting the Menin-MLL Interaction in MLL Related Leukemias: Competition With Texas Red Labeled MLL-derived Mutant Peptide). Details: fluorescence polarization; FP activity change, negative = inhibition: at 61.6 µM (top of the series).
Potency is the fitted concentration of half-maximal effect; tags give direction and shape of the fitted curve or compound fluorescence and quenching.
Throughout, for FP activity change, negative = inhibition: % of control where 0% means no effect.

Chain of UniProt O00255 (O00255 whole entry, looked up): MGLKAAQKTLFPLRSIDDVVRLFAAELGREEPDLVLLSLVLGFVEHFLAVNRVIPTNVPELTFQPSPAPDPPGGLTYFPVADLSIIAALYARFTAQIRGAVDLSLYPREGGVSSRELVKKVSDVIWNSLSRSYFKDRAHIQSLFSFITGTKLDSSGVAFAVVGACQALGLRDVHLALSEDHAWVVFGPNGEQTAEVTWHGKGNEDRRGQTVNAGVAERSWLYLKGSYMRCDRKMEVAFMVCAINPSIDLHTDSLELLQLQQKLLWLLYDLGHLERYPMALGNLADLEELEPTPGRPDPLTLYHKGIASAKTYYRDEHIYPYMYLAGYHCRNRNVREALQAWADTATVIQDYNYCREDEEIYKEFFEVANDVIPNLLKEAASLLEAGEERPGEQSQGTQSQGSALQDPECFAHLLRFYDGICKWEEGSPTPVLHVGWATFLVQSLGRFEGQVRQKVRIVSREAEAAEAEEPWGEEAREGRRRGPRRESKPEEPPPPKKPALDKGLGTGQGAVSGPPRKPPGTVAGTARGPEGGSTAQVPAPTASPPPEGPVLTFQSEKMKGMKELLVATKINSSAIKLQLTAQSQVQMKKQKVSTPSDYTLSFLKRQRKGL

Potency, inactive:
C=CCc1cc(OC)ccc1OCC(O)CN1CCN(c2ccc(OC)cc2)CC1 (stereo not given)

Potency, inconclusive:
O=C1CC(NCc2ccncc2)C(=O)N1c1ccccc1 (stereo not given) 2.51 µM [inhibitor, single point]
O=S(=O)(c1ccc(NC(=S)NN=C2CCCCC2)cc1)N1CCOCC1 22.4 µM [quencher, side channel, single point]
CC1=C(C(=O)OCCOC(C)C)C(c2cccnc2)C2=C(CCCC2=O)N1 (stereo not given) 22.4 µM [inhibitor, partial curve, poor fit]
O=C(COC(=O)c1cc(=O)[nH]c2ccccc12)Nc1nc(-c2cccc(Br)c2)cs1 39.8 µM [inhibitor, partial curve]
O=C(N/N=C/C=C\c1ccco1)c1cccs1 22.4 µM [quencher, side channel, single point]
CCOC(=O)c1c(NC(C)=O)sc2c(OCC(O)CN(CC)CC)c(Br)ccc12 (stereo not given) 15.8 µM [fluorescent, side channel, partial curve]
O=C(OCCC1Oc2cccnc2NC1=O)c1ccc(Cl)cc1 (stereo not given) 12.6 µM [fluorescent, side channel, partial curve]
COc1ccc(-c2nc3ccccc3c(C(=O)Nc3ccc(S(=O)(=O)Nc4cc(C)on4)cc3)c2C)cc1 15.8 µM [quencher, side channel, partial curve]
COc1ccc(/C=C2\CCC(C3CCCC3)C2=O)c(OC)c1OC (stereo not given) 4.47 µM [fluorescent, side channel, full curve, poor fit]
O=c1c(O)c(-c2cc(O)c(O)c(O)c2)oc2cc(O)ccc12 22.4 µM [quencher, side channel, partial curve]
CCOC(=O)c1ccc(N=C2SC(C(=O)Nc3ccc(C(=O)O)cc3)CC(=O)N2Cc2cccs2)cc1 (stereo not given) 7.08 µM [quencher, side channel, partial curve]
N#Cc1c(-c2cccs2)nc(SCc2ccc(Cl)cc2)[nH]c1=O 12.6 µM [quencher, side channel, partial curve]
Cc1ccc(CCC(=O)Nc2ccc(S(N)(=O)=O)cc2)o1 10 µM [quencher, side channel, partial curve]
CS(=O)(=O)Oc1ccc2c(c1)O/C(=C\C=C\c1ccccc1)C2=O 25.1 µM [quencher, side channel, partial curve]
Cc1cccn2c(CNC3CCCc4ccccc43)c(C(=O)N3CCCCC3)nc12 (stereo not given) 35.5 µM [fluorescent, side channel, partial curve]
C/C(=C\c1ccccc1)CN1CCC(C(=O)N2CCCC(C)C2)CC1 (stereo not given) 11.2 µM [inhibitor, partial curve, poor fit]
Cc1cccc2sc(NC(=O)c3ccc(NS(=O)(=O)c4cccs4)cc3)nc12 14.1 µM [quencher, side channel, partial curve]
COc1ccc(/C=N/NC(=O)c2cc(O)c(O)c(O)c2)cc1Cn1cc([N+](=O)[O-])cn1 12.6 µM [quencher, side channel, partial curve]
CCOc1ccccc1NC(=O)Cc1cccs1 25.1 µM [quencher, side channel, single point]
COC(=O)CN1C(=S)N(c2ccc(Cl)cc2)C(=O)C1CC(=O)Nc1ccc(F)cc1 (stereo not given) 11.2 µM [quencher, side channel, partial curve]
C/C(=N\NC(=O)CNC(=O)c1ccc(Br)cc1)c1ccco1 35.5 µM [fluorescent, side channel, single point]
CCOC(=O)Cc1nnc(NC(=O)CSc2nnc3c(n2)[nH]c2ccccc23)s1 20 µM [quencher, side channel, single point]
COc1cc(OC)cc(C(=O)N(Cc2cc3cc(C)ccc3[nH]c2=O)C(C)C)c1 8.91 µM [inhibitor, partial curve]
COc1ccc(OCC(=O)Nc2cccc(C(=O)Nc3ccccc3C(=O)O)c2)cc1 39.8 µM [quencher, side channel, single point]
CCc1ccc(S(=O)(=O)c2n[nH]n3c2nc(=O)c2ccccc23)cc1 39.8 µM [quencher, side channel, single point]
CCc1ccc(C(O)(CC)C(CN2CCOCC2)c2ccccc2)cc1 (stereo not given) 17.8 µM [fluorescent, side channel, partial curve]
Cc1ccccc1-c1nc(CN2CCC(C(=O)NCc3ccco3)CC2)c(C)o1 14.1 µM [fluorescent, side channel, partial curve]
COc1ccc(NC(=S)NCCC2=CCCCC2)cc1OC 39.8 µM [inhibitor, single point]
CCOC(=O)C1=C(C)N=C2SC(C(=O)OC)=CC(=O)N2C1c1ccc(OC)cc1 (stereo not given) 3.16 µM [fluorescent, side channel, full curve]
Cn1c(=O)c(C(=O)COC(=O)c2cc(C3CC3)nc3ccccc23)c(N)n(Cc2ccccc2)c1=O 14.1 µM [quencher, side channel, partial curve]
Nc1ccc2oc3ccccc3c2c1 22.4 µM [quencher, side channel, partial curve, poor fit]

FP activity change, negative = inhibition, inactive:
CCn1c(-c2ccc(-c3ccccc3)cc2)c[nH]c1=S -6.35%
O=C(Nc1cccc(S(=O)(=O)N2CCCCCC2)c1)c1ccc2c(c1)OCO2 4.59%
Cc1nc2ccc(C(=O)N(C)CC3CCCN(CCc4ccc(Cl)cc4)C3)cc2[nH]1 (stereo not given) 0.888%
